Laboratory results: a collection of fitness landscapes (doi:10.1126/science.1257360)
This is one part of the list.

B1: PhoQ; a variant is named by its letters at X, in order, P23837 (parent)
chain: MKKLLRLFFPLSLRVRFLLATAAVVLVLSLAYGMVALIGYSVSFDKTTFRLLRGESNLFYTLAKWENNKLHVELPENIDKQSPTMTLIYDENGQLLWAQRDVPWLMKMIQPDWLKSNGFHEIEADVNDTSLLLSGDHSIQQQLQEVREDDDDAEMTHSVAVNVYPATSRMPKLTIVVVDTIPVELKSSYMVWSWFIYVLSANLLLVIPLLWVAAWWSLRPIEALAKEVRELEEHNRELLNPATTRELTSLVRNLNRLLKSERERYDKYRTTLTDLTHSLKTPLXXLQXXLRSLRSEKMSVSDAEPVMLEQISRISQQIGYYLHRASMRGGTLLSRELHPVAPLLDNLTSALNKVYQRKGVNISLDISPEISFVGEQNDFVEVMGNVLDNACKYCLEFVEISARQTDEHLYIVVEDDGPGIPLSKREVIFDRGQRVDTLRPGQGVGLAVAREITEQYEGKIVAGESMLGGARMEVIFGRQHSAPKDE

Variants of: B1
Assay: enrichment ratio after two sorts for PhoP signalling (ratio (wild type AVST 3.29)); higher = more functional
Conditions: with PhoP (E. coli)

| Variant | enrichment ratio |
| --- | --- |
| NMCF | ≤ 0.25 |
| GYDI | ≤ 0.25 |
| YTSM | 1.02 |
| DQVI | ≤ 0.25 |
| EFQP | ≤ 0.25 |
| NGQD | ≤ 0.25 |
| RCFA | ≤ 0.25 |
| YCSF | ≤ 0.25 |
| VYEI | ≤ 0.25 |
| GDML | 5.42 |
| PQPL | ≤ 0.25 |
| KGCV | ≤ 0.25 |
| PYLP | ≤ 0.25 |
| NVVG | ≤ 0.25 |
| FGVI | 2.59 |
| PMSQ | ≤ 0.25 |
| KQIV | ≤ 0.25 |
| NCLL | 2.83 |
| QACQ | ≤ 0.25 |
| ATNP | ≤ 0.25 |
| EWFF | ≤ 0.25 |
| VNNA | ≤ 0.25 |
| LGGY | ≤ 0.25 |
| QHIV | ≤ 0.25 |

| Variant | enrichment ratio |
| --- | --- |
| NPIV | ≤ 0.25 |
| QTCP | ≤ 0.25 |
| QMLY | ≤ 0.25 |
| GKQF | ≤ 0.25 |
| HSPK | ≤ 0.25 |
| AWAR | ≤ 0.25 |
| DECG | ≤ 0.25 |
| IAAK | ≤ 0.25 |
| LLYY | ≤ 0.25 |
| VWRH | ≤ 0.25 |
| ACNR | 0.959 |
| WFKE | ≤ 0.25 |
| KDTC | ≤ 0.25 |
| MNWF | ≤ 0.25 |
| KQLQ | ≤ 0.25 |
| IRTD | ≤ 0.25 |
| HGWE | ≤ 0.25 |
| SQTP | ≤ 0.25 |
| RKHP | ≤ 0.25 |
| ARKA | ≤ 0.25 |
| SHGF | 0.668 |
| MYLN | ≤ 0.25 |
| NVCK | ≤ 0.25 |
| CQFL | ≤ 0.25 |

| Variant | enrichment ratio |
| --- | --- |
| FFQS | ≤ 0.25 |
| WSKS | ≤ 0.25 |
| YESP | ≤ 0.25 |
| GDIH | 0.828 |
| VDCS | ≤ 0.25 |
| VELL | 0.435 |
| EPQQ | ≤ 0.25 |
| GQVY | ≤ 0.25 |
| QHTN | ≤ 0.25 |
| PSVS | ≤ 0.25 |
| KKQP | ≤ 0.25 |
| LQDV | ≤ 0.25 |
| GVTN | ≤ 0.25 |
| RKMS | ≤ 0.25 |
| LWEV | ≤ 0.25 |
| VLQH | ≤ 0.25 |
| LNDP | ≤ 0.25 |
| TFGG | ≤ 0.25 |
| SYGW | ≤ 0.25 |
| PDTI | ≤ 0.25 |
| NSVS | ≤ 0.25 |
| PAVG | ≤ 0.25 |
| LGSF | ≤ 0.25 |
| KSAA | ≤ 0.25 |

| Variant | enrichment ratio |
| --- | --- |
| DQSE | ≤ 0.25 |
| CTYV | ≤ 0.25 |
| DHRE | ≤ 0.25 |
| RQCH | ≤ 0.25 |
| DHRK | ≤ 0.25 |
| NQFW | ≤ 0.25 |
| KIRC | ≤ 0.25 |
| GFLT | ≤ 0.25 |
| QIVR | ≤ 0.25 |
| VYCN | ≤ 0.25 |
| VWIG | ≤ 0.25 |
| VAPN | ≤ 0.25 |
| GQSY | ≤ 0.25 |
| TFAV | 0.261 |
| TKVY | 4.34 |
| SIDR | ≤ 0.25 |
| IFKY | ≤ 0.25 |
| HECN | ≤ 0.25 |
| AKSD | ≤ 0.25 |
| KCLK | ≤ 0.25 |
| HNYS | ≤ 0.25 |
| GQES | ≤ 0.25 |
| GRDI | ≤ 0.25 |
| HPWC | ≤ 0.25 |

| Variant | enrichment ratio |
| --- | --- |
| PTIP | ≤ 0.25 |
| ENNF | ≤ 0.25 |
| IHFV | ≤ 0.25 |
| IRYV | ≤ 0.25 |
| LWTK | ≤ 0.25 |
| CSCP | ≤ 0.25 |
| QGRM | ≤ 0.25 |
| GKCA | ≤ 0.25 |
| GSEM | ≤ 0.25 |
| VFVQ | ≤ 0.25 |
| CPCY | ≤ 0.25 |
| VNNI | ≤ 0.25 |
| NYAN | ≤ 0.25 |
| PNTC | ≤ 0.25 |
| SPFL | ≤ 0.25 |
| HYSA | ≤ 0.25 |
| SFCA | 1.59 |
| AFVA | ≤ 0.25 |
| EERI | ≤ 0.25 |
| MTRM | ≤ 0.25 |
| WPPQ | ≤ 0.25 |
| HDPY | ≤ 0.25 |
| QMVY | ≤ 0.25 |
| HLQK | ≤ 0.25 |

| Variant | enrichment ratio |
| --- | --- |
| KGNE | ≤ 0.25 |
| RITR | ≤ 0.25 |
| NGEM | ≤ 0.25 |
| WKEP | ≤ 0.25 |
| DTKM | ≤ 0.25 |
| SRWA | ≤ 0.25 |
| DTSF | ≤ 0.25 |
| YGMV | 8.94 |
| IHHY | ≤ 0.25 |
| NQPV | ≤ 0.25 |
| RAQR | ≤ 0.25 |
| WDDY | ≤ 0.25 |
| EYLI | 1.25 |
| NSIA | ≤ 0.25 |
| YTTA | ≤ 0.25 |
| RFKT | ≤ 0.25 |
| RVSH | ≤ 0.25 |
| MVTK | ≤ 0.25 |
| GPCV | ≤ 0.25 |
| QGVR | ≤ 0.25 |
| IWDC | ≤ 0.25 |
| IRPC | ≤ 0.25 |
| PGMY | ≤ 0.25 |
| PTMG | ≤ 0.25 |

| Variant | enrichment ratio |
| --- | --- |
| LVSY | ≤ 0.25 |
| IICK | ≤ 0.25 |
| HDTH | ≤ 0.25 |
| MRQF | ≤ 0.25 |
| TSFE | ≤ 0.25 |
| TTPG | ≤ 0.25 |
| SPKL | ≤ 0.25 |
| GFHC | ≤ 0.25 |
| LSQS | ≤ 0.25 |
| ENIG | ≤ 0.25 |
| EDVC | ≤ 0.25 |
| PRDQ | ≤ 0.25 |
| LLPM | ≤ 0.25 |
| PHFK | ≤ 0.25 |
| WFDP | ≤ 0.25 |
| DNEL | ≤ 0.25 |
| AYHW | ≤ 0.25 |
| ISQI | ≤ 0.25 |
| HHPV | ≤ 0.25 |
| QDHP | ≤ 0.25 |
| FWAF | ≤ 0.25 |
| SREC | ≤ 0.25 |
| GVDW | ≤ 0.25 |
| AYCH | 0.342 |

| Variant | enrichment ratio |
| --- | --- |
| GSYQ | ≤ 0.25 |
| NHSL | ≤ 0.25 |
| MYNC | ≤ 0.25 |
| FFRS | ≤ 0.25 |
| QPNN | ≤ 0.25 |
| KKNF | ≤ 0.25 |
| GIYR | ≤ 0.25 |
| YDRM | ≤ 0.25 |
| RFEV | ≤ 0.25 |
| KMCC | ≤ 0.25 |
| QHNF | 3.83 |
| YNDG | ≤ 0.25 |
| KAPD | ≤ 0.25 |
| CLFS | ≤ 0.25 |
| WEGS | ≤ 0.25 |
| GDCC | ≤ 0.25 |
| FGWY | ≤ 0.25 |
| LGVF | ≤ 0.25 |
| GLSN | ≤ 0.25 |
| YACP | ≤ 0.25 |
| LGYS | ≤ 0.25 |
| HIFF | ≤ 0.25 |
| TWRC | ≤ 0.25 |
| NSHH | ≤ 0.25 |

| Variant | enrichment ratio |
| --- | --- |
| GTDK | ≤ 0.25 |
| WNWN | ≤ 0.25 |
| PLWR | ≤ 0.25 |
| LYVI | ≤ 0.25 |
| FKVV | ≤ 0.25 |
| SLNF | 1.82 |
| VNEP | ≤ 0.25 |
| QLGY | ≤ 0.25 |
| VMLM | ≤ 0.25 |
| FEGL | ≤ 0.25 |
| MQFE | ≤ 0.25 |
| GSTG | ≤ 0.25 |
| PPKF | ≤ 0.25 |
| GEMC | ≤ 0.25 |
| EQNP | ≤ 0.25 |
| WNKM | ≤ 0.25 |
| QRTH | ≤ 0.25 |
| KSKY | ≤ 0.25 |
| SYEK | ≤ 0.25 |
| RVDL | ≤ 0.25 |
| PWCR | ≤ 0.25 |
| QMWS | ≤ 0.25 |
| NSGQ | ≤ 0.25 |
| KGWY | ≤ 0.25 |

| Variant | enrichment ratio |
| --- | --- |
| YRIK | ≤ 0.25 |
| HMGI | ≤ 0.25 |
| WLWP | ≤ 0.25 |
| YARQ | ≤ 0.25 |
| SCQI | 1.62 |
| QYLD | ≤ 0.25 |
| QGMK | ≤ 0.25 |
| GITR | 0.626 |
| AKQL | ≤ 0.25 |
| TRVY | 1.64 |
| TIHF | ≤ 0.25 |
| QYHA | ≤ 0.25 |
| DAGN | ≤ 0.25 |
| AVCW | ≤ 0.25 |
| PFQN | ≤ 0.25 |
| DEPS | ≤ 0.25 |
| KQEV | ≤ 0.25 |
| VRHN | ≤ 0.25 |
| EHIW | ≤ 0.25 |
| HTMW | ≤ 0.25 |
| YYLK | ≤ 0.25 |
| HMWA | ≤ 0.25 |
| MSYV | 6.21 |
| GHQN | ≤ 0.25 |

| Variant | enrichment ratio |
| --- | --- |
| DPSG | ≤ 0.25 |
| EMHR | ≤ 0.25 |
| PDSC | ≤ 0.25 |
| FWNQ | ≤ 0.25 |
| SVYR | ≤ 0.25 |
| QTSG | 6.17 |
| KAGW | ≤ 0.25 |
| GMVC | ≤ 0.25 |
| WKNH | ≤ 0.25 |
| RYAF | ≤ 0.25 |
| NTRG | ≤ 0.25 |
| ANLE | ≤ 0.25 |
| VRPR | ≤ 0.25 |
| KHPN | ≤ 0.25 |
| ELHV | ≤ 0.25 |
| REPL | ≤ 0.25 |
| YIKR | ≤ 0.25 |
| DPQA | ≤ 0.25 |
| PYHM | ≤ 0.25 |
| FDCV | ≤ 0.25 |
| HQWK | ≤ 0.25 |
| DKTY | ≤ 0.25 |
| HIPN | ≤ 0.25 |
| YGWQ | ≤ 0.25 |

| Variant | enrichment ratio |
| --- | --- |
| WLVR | ≤ 0.25 |
| MAEH | ≤ 0.25 |
| AIWF | ≤ 0.25 |
| RRSA | ≤ 0.25 |
| VHRD | ≤ 0.25 |
| SWMK | ≤ 0.25 |
| IRRI | ≤ 0.25 |
| TYMT | ≤ 0.25 |
| ICIH | ≤ 0.25 |
| YKEC | ≤ 0.25 |
| NVFK | ≤ 0.25 |
| QGTA | ≤ 0.25 |
| KNLI | ≤ 0.25 |
| DPFG | 0.261 |
| NRAL | ≤ 0.25 |
| DLGT | ≤ 0.25 |
| IWVH | ≤ 0.25 |
| SPHV | ≤ 0.25 |
| SNHN | ≤ 0.25 |
| PLCV | ≤ 0.25 |
| FHLQ | ≤ 0.25 |
| QRAN | ≤ 0.25 |
| YGCI | 5.12 |
| KFPR | ≤ 0.25 |

| Variant | enrichment ratio |
| --- | --- |
| SYII | ≤ 0.25 |
| LDMH | ≤ 0.25 |
| ICQV | ≤ 0.25 |
| SYQM | ≤ 0.25 |
| YDGA | ≤ 0.25 |
| IEYY | ≤ 0.25 |
| INMV | 24.2 |
| WHTQ | ≤ 0.25 |
| QGAK | ≤ 0.25 |
| ESIV | ≤ 0.25 |
| NPDY | ≤ 0.25 |
| TFFP | ≤ 0.25 |
| HSLG | 3.08 |
| YGAW | ≤ 0.25 |
| RNYW | ≤ 0.25 |
| WYCK | ≤ 0.25 |
| IYCQ | ≤ 0.25 |
| LCRQ | ≤ 0.25 |
